From the supplement of paper PMC10670038
Where a name gives a salt, the structure may show the parent alone. ± gives the standard deviation of the averaged measurements. Whole data set: some 2,000 compounds, median “relative cell viability vs DMSO, compound + 0.2 uM CuET” near 1, cut for the lowest 2% near 0.25. The list shows a part of the results.

system: TE10; test: relative cell viability vs DMSO, compound + 0.2 uM CuET (fraction); TE10 is an esophageal squamous carcinoma line; higher = less cytotoxic; settings: 2 µM; co-treatment: CuET (bis(diethyldithiocarbamate)copper) 0.2 uM; 48 h
Description: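 TE10 ESCC cells (1,000/well, 384-well plates) were treated with Selleck bioactive library compounds at 2 uM combined with 0.2 uM CuET (copper diethyldithiocarbamate) for 48 h. Viability was read by CellTiter-Glo and expressed relative to DMSO wells. Two technical replicates (A, B).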

Row | Structure (SMILES) | relative cell viability
1 | CC(C)C(=O)Oc1ccc(CO)cc1[C@H](CCN(C(C)C)C(C)C)c1ccccc1 [Fesoterodine Fumarate] | 1.04 ± 0.034
2 | Cc1ccc(NC(=O)c2ccc(CN3CCN(C)CC3)cc2)cc1Nc1nccc(-c2cccnc2)n1 [Imatinib Mesylate (STI571)] | 1.43 ± 0.12
3 | Cc1ccc(NC(=O)c2ccc(CN3CCN(C)CC3)cc2)cc1Nc1nccc(-c2cccnc2)n1 [Imatinib (STI571)] | 1.05 ± 0.1
4 | COc1cc2c(cc1OC)CC(=O)N(CCCN(C)C[C@H]1Cc3cc(OC)c(OC)cc31)CC2 [Ivabradine HCl] | 1.01 ± 0.19
5 | Cc1c(C(=O)NN2CCCCC2)nn(-c2ccc(Cl)cc2Cl)c1-c1ccc(Cl)cc1 [Rimonabant] | 0.716 ± 0.15
6 | C[C@@H](Nc1cc(F)cc(F)c1)c1cc(C(=O)N(C)C)cc2c(=O)cc(N3CCOCC3)oc12 | 0.951 ± 0.022
7 | COc1cc2c(c(OC)c1OC)-c1c(cc3c(c1OC)OCO3)CC(C)C(C)C2 (stereo not given) [Schisandrin B (Sch B)] | 1.15 ± 0.12
8 | CCOC(=O)c1cnc2ccc(-c3cncc(NS(=O)(=O)c4ccccc4)c3)cn12 | 0.533 ± 0.018
9 | COc1cc(C(=O)N2CCC(N3CCN(C)CC3)CC2)ccc1Nc1ncc2c(n1)N(C)c1ccccc1C(=O)N2C | 0.93 ± 0.068
10 | Clc1ccc(C(Cn2ccnc2)OCc2ccsc2Cl)c(Cl)c1 (stereo not given) [Tioconazole] | 0.85 ± 0.028
11 | CC1(C)O[C@H]2CC(=O)OC[C@]23[C@H]2CC[C@@]4(C)[C@H](c5ccoc5)OC(=O)[C@H]5O[C@]54[C@]2(C)C(=O)C[C@@H]13 [Limonin] | 1.1 ± 0.023
12 | NC(=O)c1cccc(-c2cc(Nc3ccc(OC(F)(F)F)cc3)ncn2)c1 | 0.941 ± 0.068
13 | CCN(CC)CCOC(=O)c1ccc(N)cc1Cl [Chloroprocaine HCl] | 1.21 ± 0.089
14 | Cc1ccc(-c2nn(C(C)(C)C)c3ncnc(N)c23)cc1 | 0.973 ± 0.046
15 | CCCCCCOC(=O)NC(=N)c1ccc(NCc2nc3cc(C(=O)N(CCC(=O)OCC)c4ccccn4)ccc3n2C)cc1 [Dabigatran Etexilate] | 0.8292 ± 0.0057
16 | COc1ccc(O)cc1 [Mequinol] | 1.16 ± 0.15
17 | NC(=O)c1cnc(N[C@@H]2CCCC[C@@H]2N)nc1Nc1cccc(-n2nccn2)c1 | 0.952 ± 0.021
18 | NS(=O)(=O)c1cc2c(cc1Cl)NC(C(Cl)Cl)NS2(=O)=O (stereo not given) [Trichlormethiazide] | 1.01 ± 0.018
19 | CN[C@@H]1[C@H](O)[C@H](NC)[C@H]2O[C@@]3(O)C(=O)C[C@@H](C)O[C@H]3O[C@@H]2[C@H]1O [Spectinomycin HCl] | 1.2 ± 0.029
20 | COC(=O)C1=CO[C@@H](O[C@@H]2O[C@H](CO)[C@@H](O)[C@H](O)[C@H]2O)[C@@H]2C(CO)=CC[C@H]12 [Geniposide] | 1.05 ± 0.068
21 | Cc1onc(-c2ccccc2Cl)c1C(=O)N[C@@H]1C(=O)N2[C@@H]1SC(C)(C)[C@@H]2C(=O)O [Cloxacillin Sodium] | 0.997 ± 0.11
22 | COc1ccc(Cn2ccc3ccc(C(=O)NO)cc32)cc1 | 0.685 ± 0.085
23 | C#Cc1cccc(Nc2ncnc3cc(OCCOC)c(OCCOC)cc23)c1 [Erlotinib HCl (OSI-744)] | 1.18 ± 0.1

Row | Structure (SMILES) | relative cell viability
24 | C#Cc1cccc(Nc2ncnc3cc(OCCOC)c(OCCOC)cc23)c1 [Erlotinib] | 0.996 ± 0.091
25 | CN1CCC[C@@H]1Cc1c[nH]c2ccc(CCS(=O)(=O)c3ccccc3)cc12 [Eletriptan HBr] | 0.718 ± 0.31
26 | COc1cc2c(Oc3ccc(NC(=O)C4(C(=O)Nc5ccc(F)cc5)CC4)cc3F)ccnc2cc1OCCCN1CCOCC1 | 0.602 ± 0.031
27 | C[S+]([O-])c1ccc(-c2nc(-c3ccc(F)cc3)c(-c3ccncc3)[nH]2)cc1 (stereo not given) | 1.28 ± 0.015
28 | COc1cc(N2CCC(N(C)C)CC2)ccc1Nc1ncc(Cl)c(Nc2ccccc2P(C)(C)=O)n1 | 0.858 ± 0.026
29 | COc1ccccc1Oc1c(NS(=O)(=O)c2ccc(C(C)(C)C)cc2)nc(-c2ncccn2)nc1OCCO [Bosentan] | 1.04 ± 0.015
30 | COc1ccccc1Oc1c(NS(=O)(=O)c2ccc(C(C)(C)C)cc2)nc(-c2ncccn2)nc1OCCO [Bosentan Hydrate] | 1.26 ± 0.23
31 | CC1=NN(c2ccccc2)C(=O)C1 [Edaravone] | 1.37 ± 0.095
32 | CCN(CC)CCNC(=O)c1cc(Cl)c(N)cc1OC [MetoclopraMide HCl] | 1.15 ± 0.025
33 | CCOc1ccc2ccccc2c1C(=O)N[C@@H]1C(=O)N2[C@@H]1SC(C)(C)[C@@H]2C(=O)O [Nafcillin Sodium] | 1.14 ± 0.16
34 | C=C1/C(=C\C=C2/CCC[C@]3(C)[C@@H]([C@H](C)CCCC(C)C)CC[C@@H]23)C[C@@H](O)C[C@@H]1O [Alfacalcidol] | 1.35 ± 0.14
35 | CO[C@H]1/C=C\C=C(/C)C(=O)NC2=CC(=O)C(NCCN(C)C)=C(C[C@@H](C)C[C@H](OC)[C@H](O)[C@@H](C)/C=C(\C)[C@@H]1OC(N)=O)C2=O [17-DMAG (Alvespimycin) HCl] | 0.703 ± 0.081
36 | CCC[C@@H]1C[C@@H](C(=O)N[C@@H]([C@H]2O[C@H](SC)[C@H](O)[C@@H](O)[C@H]2O)[C@H](C)Cl)N(C)C1 [Clindamycin HCl] | 1.27 ± 0.11
37 | CCC[C@@H]1C[C@@H](C(=O)N[C@@H]([C@H]2O[C@H](SC)[C@H](O)[C@@H](O)[C@H]2O)[C@H](C)Cl)N(C)C1 [Clindamycin] | 1.39 ± 0.22
38 | O=C(O)CCNC(=O)c1ccccc1 [Betamipron] | 1.014 ± 0.0048
39 | O=C(N[C@H](CO)[C@H](O)c1ccc([N+](=O)[O-])cc1)C(Cl)Cl [Chloramphenicol] | 1 ± 0.015
40 | Oc1ccc(/C=C/c2cc(O)cc(O)c2)cc1 [Resveratrol] | 0.852 ± 0.11
41 | Cc1ncc(CCCN(C)C)cc1Nc1ncc2c(n1)-c1ccc(C(F)(F)F)cc1NC(=S)C2 | 0.937 ± 0.021
42 | CCOC(=O)C1=C(COCCN)NC(C)=C(C(=O)OC)C1c1ccccc1Cl (stereo not given) [Amlodipine] | 1 ± 0.017
43 | CCOC(=O)C1=C(COCCN)NC(C)=C(C(=O)OC)C1c1ccccc1Cl (stereo not given) [Amlodipine besylate (Norvasc)] | 0.948 ± 0.01
44 | COc1ccc(C2=NC(c3ccc(Cl)cc3)C(c3ccc(Cl)cc3)N2C(=O)N2CCNC(=O)C2)c(OC(C)C)c1 (stereo not given) [Nutlin-3a] | 1.149 ± 0.0057
45 | COc1ccc(C2=NC(c3ccc(Cl)cc3)C(c3ccc(Cl)cc3)N2C(=O)N2CCNC(=O)C2)c(OC(C)C)c1 (stereo not given) [Nutlin-3b] | 1.17 ± 0.094
